PubChem BioAssay AID1508624 (National Center for Advancing Translational Sciences (NCATS), 2021)
In all, about 48,000 compounds went through this assay and about 120 (0.25%) were called active. Not shown: some 4% with an inconclusive outcome. The call rests on the fitted dose curve; in most records, active means well fitted activation curve with a large enough effect; inconclusive means small, poorly fitted or top-dose-only effect, or another doubt; inactive means no such curve, though single readings can be large or run the other way. The list shows a part of the results.

experiment: Primary qHTS for Identification of Small Molecule Activators of Huntingtin-Antisense Promoter Activity; conditions: HEK293 HTT-AS promoter firefly luciferase reporter, 24 h; series mostly up to 57.5 µM; activity change, positive = activation: at the top concentration; further: nearly all actives have a fitted effect of over 55% in size
Procedure, shortened: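 HEK293 cells carrying firefly luciferase reporters were seeded at 2,500 per well in Opti-MEM and cultured for 24 h. They were then treated with compounds at up to 57.5 uM final for 24 h at 37 degrees C before Dual-Glo luminescence readout.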

Activity change, positive = activation, inactive:
CCOC(=O)c1c(NC(=O)c2ccc(S(=O)(=O)N(CCOC)CCOC)cc2)sc2c1CC(C)(C)NC2(C)C -10%, CN1CCCC(n2nc(Cc3ccc(Cl)cc3)c3ccccc3c2=O)CC1 (stereo not drawn) -4.98%, Cc1c(Cl)cccc1NC(=O)CN1C(=O)COc2ccc(S(=O)(=O)Nc3ccccc3)cc21 -29.4%, CCCOC(=O)CSc1nnc2ccc3ccccc3n12 4.71%, O=C(CSc1nc2ccccc2nc1Cc1ccccc1)Nc1ccc2c(c1)OCO2 -3.29%, COc1ccc(NC(=O)c2ccc3c(c2)CCN3S(=O)(=O)c2ccc(C)cc2)cc1Cl -4.09%, CCOC(=O)c1cccc(NC(=O)C(C)n2c(C)c3cnn(-c4ccccc4)c(=O)c3c2C)c1 (stereo not drawn) -28.8%, Cc1ccc(NC(=O)CN(C)S(=O)(=O)c2ccc3nc(C)sc3c2)c(C)c1 -12.4%, CC(C)NS(=O)(=O)c1ccc2nc(NC(=O)c3cncc(Br)c3)sc2c1 -16.7%, COc1ccc(Cl)cc1NC(=O)CCc1c(C)nc2c(c1C)c(=O)n(C)c(=O)n2C -12.7%, FC(F)(F)C(F)(F)C(F)(F)C(F)(F)C(F)(F)C(F)(F)C(F)(F)C(F)(F)Br -0.918%, COc1cc(NC(=O)CSc2nc3nc(C)c(Cc4ccc(C)cc4)c(C)n3n2)cc(OC)c1 -14.9%, CCCSCCCNC(=O)c1ccc(Cn2c(=O)c3cccn3c3cccnc32)cc1 -5.46%, COc1ccc(C(=O)CN2C(=O)N(c3ccc(C(C)=O)cc3)S(=O)(=O)c3ccccc32)cc1 -28.4%, CCOC(=O)N1CCc2c(sc3c2c(=O)n(CCc2ccccc2)c(=O)n3Cc2ccc(F)cc2)C1 -37.2%, O=C(CSc1nc(-c2ccccc2)no1)N1CCCCC1 -4.02%, Cc1ccccc1-c1nn2c(=O)cc(CN3CCN(C(=O)c4ccc(C(C)(C)C)cc4)CC3)nc2s1 -6.74%, Cc1ccc(Cn2nnc(C(=O)Nc3ccc(F)c(F)c3)c2N)cc1 -3.93% [at 11.5 µM, percent change from vehicle, -100% = no light], COc1ccc(S(=O)(=O)N2CCC(n3c(C(F)(F)F)nc4cccnc43)CC2)cc1OC -4.96% [at 11.5 µM, percent change from vehicle, -100% = no light], CCOc1ccccc1-n1cc2c(c1-c1ccc(OC)cc1)c(=O)n(C)c(=O)n2C -12.7%, Cc1ccc(N(C)C(=O)C2CCN(S(=O)(=O)c3ccc4c(c3)CCCN4C(=O)C3CCC3)CC2)cc1 3.98%, O=C1CC(c2ccccc2)Cc2[nH]c(=O)c(C(=O)Nc3cccc(Cl)c3)cc21 (stereo not drawn) -2.21%, COC(=O)c1ccc(NC(=O)CN2CCN(c3ccc(Cl)cc3)CC2)cc1 -18.1%, COc1ccc(NC(=O)c2cn(-c3ccccc3)nc2-c2ccc(C)cc2)cc1 7.31%, CCOc1ccc(NC(=O)CSc2nnc(NC(=O)Nc3ccccc3)s2)cc1 1.59%, CCOc1ccc(-c2nonc2NC(=O)COc2ccc(C)c(C)c2)cc1OCC -1.89%, COc1ccc(-c2nn(C)c3sc(C(=O)N4CCN(c5cc(Cl)ccc5C)CC4)cc23)cc1OC -43.6%, O=C(c1ccc2c(c1)N(Cc1cccc(Cl)c1)C(=O)c1ccccc1S2(=O)=O)N1CCN(c2cccc(C(F)(F)F)c2)CC1 -14.5%, CCOc1ccc(-c2cnc(NCc3cccc(Cl)c3)n2C)cc1 -9.33%, COc1ccc(C(=O)CCC(=O)Nc2cccc(C(C)=O)c2)cc1 -3.78%, COc1ccc(CCNC(=O)Cn2c(=O)c3cccn3c3ccc(F)cc32)cc1OC -7.79%, Cc1ccc(Cn2c(=O)n(Cc3ccc(Cl)cc3)c(=O)c3cccnc32)cc1 -13.2%, CCC(=O)N1CCc2cc(S(=O)(=O)CCC(=O)N3CCN(c4ccccc4F)CC3)ccc21 -5.29%, Cc1ccc(CNC(=O)c2cc3sccc3n2Cc2ccc(F)cc2)cc1 -19%, Cc1cc2oc(C(=O)Nc3nc(-c4ccccc4)ns3)c(C)c2cc1Cl 3.02%, Cc1ccc(NC(=O)CN2C(=O)CCc3cc(S(=O)(=O)N4CCOCC4)ccc32)c(C)c1 -5.53%, CCOc1ccc(CNC(=O)c2sc3nc(C)cc(C)c3c2-n2cccc2)cc1 13%, CN1CCN(C(CNC(=O)C(=O)Nc2ccc(F)cc2)c2cccnc2)CC1 (stereo not drawn) 30%, CCC(CC)C(=O)N1CCc2cc(OC)c(OC)cc2C1COc1ccccc1OC (stereo not drawn) -20.4%, Cc1ccc(C)c(Cn2nnc(C(=O)NCc3ccccc3)c2N)c1 -14.7%, CN1CCN(CCCN2c3ccccc3Sc3ccc(Cl)cc32)CC1, CCN(c1ccccc1)c1cc(NC)[n+](C)c(C)n1 -7.55%, CCCOc1ccc(-c2cccc(NS(=O)(=O)c3cc(OC)ccc3OC)c2)nn1 -21.5%, O=C(NCc1ccc(Cl)cc1)c1cnc2sc(N3CCCCCC3)nn2c1=O -0.786%, CCN(CC)c1ccc(NC(=O)c2cnn3c(C(F)F)cc(-c4ccccc4)nc23)cc1 -2.62%, COc1ccc(Cl)cc1NC(=O)C1CCN(c2ncnc3c2nc2n3CCCCC2)CC1 -10.3%, O=C(CCC(=O)N1Cc2ccccc2Oc2ncccc21)NCc1ccccc1Cl -15.3%, COc1ccc(C(c2c(O)cc(C)n(Cc3ccco3)c2=O)N2CCN(c3ccccc3)CC2)cc1 (stereo not drawn) 9.11%, Cc1ccccc1-n1nc(CO)c(C(=O)NCCc2ccccc2)n1 -14.1%, COc1cccc(NC(=O)C(=O)NCC(c2cccnc2)N2CCN(c3ccccc3)CC2)c1 (stereo not drawn) 7.73%, CC1CCc2c(sc(NC(=O)c3ccccc3)c2C(=O)Nc2ccccc2)C1 (stereo not drawn) -9.26%, COc1ccc(OC)c(CNc2ncnc3onc(-c4ccc(Cl)cc4)c23)c1 -39.5%, CCOC(=O)CSc1nc2ccc(NC(=O)COc3ccccc3)cc2s1 -5.81%, Cc1cccc(CSc2cn(CC(=O)N3CCCCCC3)c3ccccc23)c1 22.8%, CCOC(=O)c1cc(OC(=O)c2cccc(C)c2)n(-c2ccccc2)n1 -18.4%, COCc1cc(C)nc2sc3c(c12)NC(c1ccc(NC(C)=O)cc1)N(c1ccc(C)cc1)C3=O (stereo not drawn) 12.2%, COc1cccc(CNc2ncnc3onc(-c4ccc(F)cc4)c23)c1 -33.9%, O=c1c2ccccc2n(Cc2cccc(Cl)c2)c(=O)n1CCc1ccccc1 -21%, C[C@]12CCC3=C4CCC(=O)C=C4CC[C@@H]3[C@H]1CC[C@@]2(O)CC#N -14.4%, COc1cccc2cc(-c3nc4sc(C(=O)Nc5ccc(F)cc5F)c(C)c4c(=O)[nH]3)c(=O)oc12 -3.95%, O=C1c2ccccc2C(=O)c2c1ccc(O)c2O 5.18%, COCc1cc(C)nc2sc3c(=O)n(-c4cc(C)ccc4C)nnc3c12 -8.39%, CCOC(=O)c1ccccc1NC(=O)N1CCN2CCCCC2C1 (stereo not drawn) -8.15%, Cc1ccc(C)c(N2CCN(c3ncnc4onc(C)c34)CC2)c1 -15.7%, CC(=O)Nc1nonc1-c1nnc(SCC(=O)Nc2cc(C)ccc2C)n1-c1ccccc1 -17.8%, Cc1cccc(CC(=O)NC2CC(=O)N(c3cccc(F)c3)C2)c1 (stereo not drawn) 2.98%, Cc1cc(N2CCCCC2)nc2ccc(NC(=O)c3ccc(F)cc3)cc12 -24.2%, CCOC(=O)c1c(NC(=O)CSc2cn(CCNC(=O)c3ccc(OCC)cc3)c3ccccc23)sc2c1CCCC2 -41.1%, COc1ccc(OC)c(NC(=O)C2CCN(S(=O)(=O)c3ccc(C)cc3)CC2)c1 -3.73%, COCCNC(=O)CSc1nc(-c2ccc(F)cc2)[nH]c1-c1ccc(Cl)cc1 -21.7%, CC(CNC(=O)Cn1ncc2c3ccccc3n(Cc3cccc(Cl)c3)c2c1=O)c1ccccc1 (stereo not drawn) -11.7%, Nc1nc(=S)c2[nH]cnc2[nH]1, CCOc1ccc(C(=O)Nc2ccc(S(=O)(=O)N(Cc3ccccc3)c3ccccc3)cc2)cc1 -94.5%, COc1ccc(OC)c(C2CC(=O)N(c3cccc(C)c3)C3=C2C(=O)OC3)c1 (stereo not drawn) -20.2%, O=C(COc1ccccc1)Nc1ccc(OCc2cc(=O)n3ccsc3n2)cc1 4.33%, Cc1cc(F)ccc1Nc1nc2ccccc2n2nnnc12 -1.57%, CN(C(=O)CSc1nc2ncccc2o1)c1ccc(F)cc1 -7.59%, O=C(CSc1nc2cc3ccccc3cc2[nH]1)Nc1cccc(C(F)(F)F)c1 7.44% [at 11.5 µM, percent change from vehicle, -100% = no light], CC(C)CCNC(=O)C(=O)Nc1c2c(nn1-c1ccccc1)CS(=O)(=O)C2 -4.13%, CNS(=O)(=O)c1cn(CC(=O)Nc2ccc(OC)c(Cl)c2)cc1S(=O)(=O)NC -9.36%, COc1ccc(NC(=O)C(=O)NCCc2ccccc2)cc1OC -5.62%, CC(C)CCNC(=O)CN1C(=O)COc2ccc(S(=O)(=O)N3CCOCC3)cc21 -6.08%, CC(C)c1ccc(NC(=O)C2CCCN(S(=O)(=O)c3ccc(Br)s3)C2)cc1 (stereo not drawn) -17.8%, COc1cccc(C(=O)Nc2ccccc2C(=O)OCc2cc(=O)n3nc(C)sc3n2)c1 -1.64%, CCOC(=O)c1cccc(NC(=O)c2cc3c(Cl)nc4ccc(C)cc4c3s2)c1 -12.4%, COc1ccc(-n2cc(-c3ccccc3)c3c(SC(C)C(C)=O)ncnc32)cc1 (stereo not drawn) -21.8%, CCc1ccc(NS(=O)(=O)c2ccc3[nH]cc(C(=O)NC4CCCC4)c(=O)c3c2)cc1 -29%, Fc1ccc(-c2cc(-c3nc(-c4cccc(Cl)c4)no3)[nH]n2)cc1 -3.5%, c1ccc(CNc2nc(NCc3ccccc3)c3ccccc3n2)cc1 -67%, COc1cc(OC)c(OC)cc1CN1CCc2nc(N3CCN(c4ncccn4)CC3)ncc2C1 -28.9%, COc1ccccc1CNC(=O)CSc1ncc2c(n1)-c1ccccc1N(Cc1ccc(C)cc1)S2(=O)=O -8.46%, COc1ccc(-c2noc(C3CC(=O)N(c4ccc(C)c(F)c4)C3)n2)c(OC)c1 (stereo not drawn) -12.1%, CCN1CCN(C(=O)c2ccc3c(c2)N(Cc2cccc(Cl)c2)C(=O)c2ccccc2S3(=O)=O)CC1 -9.33%
